Hit rate of the full screen: of about 310,000 compounds, about 14,000 (4.5%) showed an effect of 50% or more. The effect is printed as a negative number. This is one part of the list.
biological target: human ether-à-go-go-related gene (hERG) potassium channel (human, UniProt Q12809); test: primary screen, population patch clamp on CHO cells stably expressing hERG
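Further: peak tail current of the secondary pulse compared with the same well before compound.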

Sequence of human ether-à-go-go-related gene (hERG) potassium channel (Q12809 whole entry, looked up): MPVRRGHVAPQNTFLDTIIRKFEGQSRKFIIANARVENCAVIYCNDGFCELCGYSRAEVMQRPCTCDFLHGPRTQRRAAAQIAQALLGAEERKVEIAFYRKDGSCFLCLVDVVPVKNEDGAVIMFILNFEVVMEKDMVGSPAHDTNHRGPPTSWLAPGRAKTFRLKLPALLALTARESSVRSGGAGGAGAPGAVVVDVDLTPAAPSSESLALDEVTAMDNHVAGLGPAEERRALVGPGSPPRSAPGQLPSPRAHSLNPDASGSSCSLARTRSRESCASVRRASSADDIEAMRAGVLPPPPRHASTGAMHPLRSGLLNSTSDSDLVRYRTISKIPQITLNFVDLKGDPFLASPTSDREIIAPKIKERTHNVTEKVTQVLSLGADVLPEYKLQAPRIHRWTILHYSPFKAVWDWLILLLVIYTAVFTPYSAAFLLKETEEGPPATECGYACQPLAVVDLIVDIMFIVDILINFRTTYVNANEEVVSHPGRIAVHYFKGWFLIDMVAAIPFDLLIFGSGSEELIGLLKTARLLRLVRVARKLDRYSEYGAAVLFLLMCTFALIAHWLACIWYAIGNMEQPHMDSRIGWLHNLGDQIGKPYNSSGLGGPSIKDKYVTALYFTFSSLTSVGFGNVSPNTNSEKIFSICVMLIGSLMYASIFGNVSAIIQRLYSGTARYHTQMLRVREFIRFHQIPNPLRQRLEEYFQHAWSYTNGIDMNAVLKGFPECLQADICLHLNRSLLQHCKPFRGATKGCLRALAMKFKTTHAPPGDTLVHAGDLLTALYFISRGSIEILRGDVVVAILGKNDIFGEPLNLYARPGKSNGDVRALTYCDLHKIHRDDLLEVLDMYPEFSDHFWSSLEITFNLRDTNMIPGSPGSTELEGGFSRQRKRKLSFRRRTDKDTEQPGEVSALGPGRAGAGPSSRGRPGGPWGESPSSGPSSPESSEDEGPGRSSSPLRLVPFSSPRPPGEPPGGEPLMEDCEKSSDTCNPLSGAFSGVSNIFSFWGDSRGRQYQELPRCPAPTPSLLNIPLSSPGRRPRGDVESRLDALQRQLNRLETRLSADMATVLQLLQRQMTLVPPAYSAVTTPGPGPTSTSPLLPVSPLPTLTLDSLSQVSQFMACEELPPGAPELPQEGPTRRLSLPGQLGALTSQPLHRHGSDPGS

SMILES | hERG current change (%, negative = inhibition) at 10uM [%]
CCC(C)NC(=O)C(Cc1ccccc1)NS(=O)(=O)c1ccc2c(c1)oc(=O)n2C (centres unmarked) | 22.1
O=C(CN1CCN(Cc2ccccc2)CC1)N1N=CCC1c1ccccc1 (centres unmarked) | -1.06
COc1ccc(Cc2nnc(NC(=O)Cn3cnc4c3c(=O)n(C)c(=O)n4C)s2)cc1OC | 24.4
CC(=O)Nc1ccc(S(=O)(=O)c2c(N)n(CCN3CCOCC3)c3nc4ccccc4nc23)cc1 | -3.81
Cc1cc2c(c(=O)n1Cc1ccc3c(c1)OCO3)C(c1cccnc1)C(C#N)=C(N)O2 (centres unmarked) | 5.36
Cc1ccc(CSc2ncnc3c2cnn3Cc2ccccc2)cc1C | -4.1
CC(=O)CSc1nc(-c2ccccc2)c(-c2ccccc2)o1 | 10
Cl.O=C(Nc1cc(S(=O)(=O)N2CCCCC2)ccc1O)c1ccccc1NS(=O)(=O)c1ccc(F)cc1 | 3.57
CN(CC(=O)Nc1ccccc1Br)C(=O)COc1ccc2ccccc2c1 | 1.04
CC(C)Cn1c(-c2nn(C)cc2Cl)n[nH]c1=S | 17.1
Cc1ccc(NCc2nnc(SCC(=O)N3CCc4ccccc43)n2C)cc1 | -13.4
Cn1c(Cn2c(=O)sc3ccccc32)nnc1SCc1ccccn1 | -31
C=C[C@H]1CN2CC[C@H]1C[C@H]2[C@H](O)c1ccnc2ccccc12 | -34
COc1ccc2cc(C(=O)Nc3c(C)n(C)n(-c4ccccc4)c3=O)sc(=O)c2c1OC | 8.86
CCOC(=O)C1(Cc2ccccc2)CCN(Cc2cccc(OC)c2O)CC1 | -69.6
COCC(=O)Nc1cc(C(=O)Nc2cccc(C)c2C)ccc1Cl | -0.776
CCOC(=O)N1CCN(C(=O)CS(=O)(=O)c2cn(Cc3ccc(F)cc3)c3ccccc23)CC1 | -26.2
CC(=O)Cc1nsc(NC(=O)c2ccc(COc3ccc(C)cc3)o2)n1 | -6.48
O=C(COC(=O)C1CC(=O)N(c2nc(-c3ccccc3)cs2)C1)c1ccccc1 (centres unmarked) | 26.9
CC(=O)Nc1ccc(-c2nnn(CC(=O)Nc3ccc4c(c3)OCO4)n2)cc1Cl | 14.8
O=c1cc(-c2ccccc2)oc2ccccc12 | -4.17
COc1ccc(C(=O)NCCCCNC(=O)c2ccc(OC)c(OC)c2)cc1OC | 12.2

SMILES | hERG current change (%, negative = inhibition) at 10uM [%]
CC(C)c1ccc(NC2CCCN(C(=O)CSc3nncn3C)C2)cc1 (centres unmarked) | 17.4
Cc1ccc(C(=O)NCc2ccc3c(c2)OCO3)cc1S(=O)(=O)N1CCCCC1 | -26.4
O=[N+]([O-])c1cc2c(cc1[N+](=O)[O-])OCCOCCOCCOCCO2 | -59.3
CCNc1nc(NCC)nc(Oc2ccc(OCc3ccccc3)nn2)n1 | 9.65
CCOc1ccc(CCNC(=O)CSCc2ccc(C)cc2)cc1OCC | -2.33
COc1cccc(CN(C)c2nc(-c3cccs3)nc3ccccc23)c1 | -3.14
CCCC(C)C(=O)Nc1ccccc1C(=O)OCC (centres unmarked) | -4.39
O=C(CN1C(=O)c2cccnc2Oc2ccc(Cl)cc21)NC1CCCCC1 | -13.1
Cc1nnc(SCC(=O)n2c3c(c4ccccc42)CCCC3)s1 | 9.65
CCOc1ccc(-c2cc(C(=O)Nc3ccc4c(c3)OCCO4)c3ccccc3n2)cc1 | 13.5
COC(=O)c1c(NC(=O)c2ccccc2)sc(C(N)=O)c1C | 15.9
CSc1ccc(CNCC2CCCO2)cc1.Cl (centres unmarked) | 2.99
COc1cc2oc(-c3ccc(O)cc3)cc(=O)c2c(O)c1OC | -18.2
CC(C)OC(=O)c1cccnc1SCC(=O)N(C)c1ccccc1 | -9.73
Cc1oc2c(CN3CCCC3)c(O)ccc2c(=O)c1-c1ccc(Br)cc1 | -14.1
COc1ccc(OC)c(C2=C/C(=C/c3ccccn3)C(=O)O2)c1 | -8.04
Cc1cc(C)c(NC(=O)/C(C#N)=C/c2ccc(OCc3ccc(F)cc3)cc2)c(C)c1 | -1.54
O=C1CCCc2sccc2N1 | -6.61
CCOC(=O)C1=C(CSc2nncn2C)NC(=O)NC1c1cc(OCC)ccc1OCC (centres unmarked) | 6.87
CCOC(=O)N1CCN(C(=O)c2cnn(-c3ccccc3)c2NC(=O)c2ccccc2F)CC1 | -1.25
COc1ccc(-c2cc(C(=O)NCCN3CCOCC3)c3ccccc3n2)cc1OC | 12.4
CN(C(=O)CS(=O)(=O)c1cn(CC(=O)N2CCCC2)c2ccccc12)c1ccccc1 | -3.8

SMILES | hERG current change (%, negative = inhibition) at 10uM [%]
Cc1ccccc1NC(=O)CCC(=O)N/N=C/c1c[nH]c2ccccc12 | 2.16
CC#CCN(CC#CC)S(=O)(=O)c1ccc(S(=O)(=O)N2CCOCC2)cc1 | -8.35
COc1ccc(CCNC(=O)C2(C)CCC(=O)N2Cc2ccc(C)cc2)cc1OC (centres unmarked) | 14.2
Cc1cc(OCC(=O)Nc2cccnc2)c2c(C)cc(=O)oc2c1 | 4.24
CC1CCCC(C)N1CCNC(=O)CCn1nc(-c2ccccc2)ccc1=O (centres unmarked) | -46.8
CC1=C(C(=O)c2ccccc2)C(c2ccc(O)cc2)NC(=S)N1 (centres unmarked) | 2.12
Cn1c(N2CCOCC2)c(/C=N/OC(=O)c2ccc(F)cc2)c2ccccc21 | -4.32
CCOC(=O)c1[nH]c(=O)[nH]c1COC(=O)c1cc2ccccc2o1 | -5.46
CCn1c(SCC(=O)Nc2ccccc2N2CCOCC2)nnc1-c1ccccc1O | -23.9
CCc1ccc(-c2cc3c(=O)n(CC(=O)NCCN4CCCCC4C)nc(C)n3n2)cc1 (centres unmarked) | -57.5
O=[N+]([O-])c1cc(/C=N/N2CCN(c3ccccc3)CC2)ccc1Cl | 2.14
O=C(CNC(=O)c1ccc2c(c1)OCCO2)N=Nc1c(O)[nH]c2ccccc12 | 7.19
O=C(NCC(=O)N1CCc2ccccc2C1)c1ccccc1Cl | 4.34
Cc1ccc(C(=O)c2cc(Br)ccc2N)cc1 | 11.8
N#Cc1nc(-c2ccc(F)cc2)oc1NCCN1CCOCC1 | -0.823
Cc1cccc(-c2nsc(SCC(=O)Nc3cc(C)on3)n2)c1 | 16.1
COc1ccc(C)cc1S(=O)(=O)Nc1cc2c3c(c1)CCC(=O)N3CCC2 | 7.28
Cc1nc(C(=O)NNC(=O)c2ccc(Cl)cc2)c(C(F)(F)F)o1 | 7.36
CN1/C(=C/C(=S)NC(=O)C2(C)CC2(Cl)Cl)C(C)(C)c2ccccc21 (centres unmarked) | -10
Cc1ccc(NC(=O)CC2SC3=NCCN3C2=O)cc1 (centres unmarked) | -5.4
O=C(NCC(c1ccco1)N1CCN(c2ccccc2F)CC1)C(=O)NC1CCCCC1 (centres unmarked) | 18.5
Cc1cc(NC(=O)CSc2nc3cc(Cl)ccc3s2)no1 | 13.8

SMILES | hERG current change (%, negative = inhibition) at 10uM [%]
CCN(CC(=O)Nc1c(F)cccc1F)C(=O)c1ccc(N2CCCC2=O)cc1 | 16.3
COc1cccc(CNC(=O)c2ccc(CS(=O)(=O)Cc3ccc(C)cc3)o2)c1 | -12.8
CCC(CC)CN1C(Nc2ccccc2)=NC[C@@H]1C | -2.94
COc1ccc(OC)c(-c2csc(NC(=O)Cc3ccc(OC)c(OC)c3)n2)c1 | 2.48
O=C(COc1ccc(Oc2ccccc2)cc1)NCc1cn2ccccc2n1 | -15.6
CC(=O)C1=C(O)C(=O)N(c2cccc(Br)c2)C1c1ccccc1Cl (centres unmarked) | -4.7
O=C(Nc1ccc(CCC(=O)N2CCCC2)cc1)c1ncn[nH]1 | -1.64
CC1=CC=CN2C1=NC(=O)CC2(C)C(=O)N(CC(=O)NC1CCCC1)Cc1ccccc1 (centres unmarked) | 18.2
CCN(c1ccccc1)S(=O)(=O)c1cc2c3c(c1)CCN3C(=O)CC2 | 4.72
N#CCCS(=O)(=O)c1nnnn1-c1ccccc1 | -18.7
CCc1ccc(Sc2cc(C(=O)NCCN3CCOCC3)c3ccccc3n2)cc1 | -56.2
COc1ccc(CNc2cc(C)cc(C)c2)cc1OC | 11.7
CC/C(=C1/C(=O)CC(C)(C)C(C(=O)OC)C1=O)N1CCCC1 (centres unmarked) | 17.8
CC1(C)Cc2c(sc3nc4n(-c5ccccc5)cnn4c(=O)c23)CO1 | 1.85
CCc1ccc2c(c1)/C(=N/OC)C(=O)N2 | -11
COc1ccc(OC(C)C(=O)N2CCCc3ccccc32)cc1 (centres unmarked) | 13.7
CCC(C)NC(=O)c1ccc(N2CCC3(CC2)OCCO3)c([N+](=O)[O-])c1 (centres unmarked) | 1.43
Cc1cc(C)c(OCC(=O)OCC(=O)N(C)C2CCS(=O)(=O)C2)c(C)c1 (centres unmarked) | 5.95
COc1cccc(N2CCN(C3CC(=O)N(c4cccc(Cl)c4)C3=O)CC2)c1 (centres unmarked) | -14.4
CC(C)(C)c1ccc(C(=O)NCC2CCCN2S(=O)(=O)c2ccccc2)cc1 (centres unmarked) | -6.28

From PMC4336329 (PLoS ONE, 2015)
